Data on 56 compounds can be found in PMC4336329 (PLoS ONE, 2015).

In all, about 310,000 compounds went through this assay and about 14,000 (4.5%) showed an effect of 50% or more. Effects have a minus sign here. The list shows a part of the results.
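Further: peak tail current of the secondary pulse compared with the same well before compound.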

Sequence of human ether-à-go-go-related gene (hERG) potassium channel (Q12809 whole entry, looked up): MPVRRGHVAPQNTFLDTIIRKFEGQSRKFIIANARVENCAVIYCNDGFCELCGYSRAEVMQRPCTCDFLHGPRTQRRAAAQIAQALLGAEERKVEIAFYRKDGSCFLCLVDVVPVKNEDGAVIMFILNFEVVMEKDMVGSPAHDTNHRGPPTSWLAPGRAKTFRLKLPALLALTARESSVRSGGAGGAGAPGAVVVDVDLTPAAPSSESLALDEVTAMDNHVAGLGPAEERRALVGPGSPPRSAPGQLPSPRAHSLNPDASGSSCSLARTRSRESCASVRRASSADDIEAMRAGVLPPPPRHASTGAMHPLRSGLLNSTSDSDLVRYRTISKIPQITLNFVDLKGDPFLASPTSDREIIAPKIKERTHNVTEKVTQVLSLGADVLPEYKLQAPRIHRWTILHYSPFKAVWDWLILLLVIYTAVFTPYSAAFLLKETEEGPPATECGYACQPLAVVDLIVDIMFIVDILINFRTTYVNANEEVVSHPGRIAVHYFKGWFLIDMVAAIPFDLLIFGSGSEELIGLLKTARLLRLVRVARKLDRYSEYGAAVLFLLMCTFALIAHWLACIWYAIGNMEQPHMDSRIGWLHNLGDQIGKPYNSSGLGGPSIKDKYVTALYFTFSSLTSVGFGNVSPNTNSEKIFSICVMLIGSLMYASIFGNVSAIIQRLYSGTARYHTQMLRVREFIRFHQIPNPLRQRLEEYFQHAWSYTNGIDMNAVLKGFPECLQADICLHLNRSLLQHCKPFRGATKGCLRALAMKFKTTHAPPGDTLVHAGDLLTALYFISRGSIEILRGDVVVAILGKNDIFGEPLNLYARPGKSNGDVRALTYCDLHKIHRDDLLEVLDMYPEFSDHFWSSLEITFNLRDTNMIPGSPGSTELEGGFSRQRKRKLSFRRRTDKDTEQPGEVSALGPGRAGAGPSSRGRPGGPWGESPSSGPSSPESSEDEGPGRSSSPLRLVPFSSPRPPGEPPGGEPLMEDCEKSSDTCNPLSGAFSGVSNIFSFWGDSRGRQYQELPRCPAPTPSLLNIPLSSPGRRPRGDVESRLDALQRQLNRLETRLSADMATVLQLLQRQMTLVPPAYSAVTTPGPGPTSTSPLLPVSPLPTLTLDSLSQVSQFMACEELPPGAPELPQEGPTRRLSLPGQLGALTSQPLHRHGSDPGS

The experiment addresses human ether-à-go-go-related gene (hERG) potassium channel (human, UniProt Q12809). Nature of the experiment: primary screen, population patch clamp on CHO cells stably expressing hERG.
For the compound `O=Cc1cn(CCOc2ccccc2)c2ccccc12`, the “hERG current change (%, negative = inhibition) at 10uM” value was found to be 4.98%.

For `Cc1ccc(-n2c(SCc3ccc(C(=O)O)cc3)nnc2-c2ccncc2)cc1`, the “hERG current change (%, negative = inhibition) at 10uM” value came out at 4.15%. The value for `CCCn1nnc(NCc2ccc(OCc3cccs3)c(OC)c2)n1` was 3.16%; that for `O=C(CSc1ncc(-c2ccccc2)n1C1CCCC1)N1CCc2ccccc21` was -1.34%. The value for `O=C(C1CC1)N1N=C(c2ccccc2)CC1(O)C(F)(F)F` (centres unmarked) was 13.2%; that for `COCCNC(=O)c1ccc2c(c1)nc(C)n2-c1cc(OC)c(OC)c(OC)c1` was 3.81%. On to `CCCCNC(=O)C1(NC(=O)Nc2ccccc2)CCCCC1`, for which the “hERG current change (%, negative = inhibition) at 10uM” value is listed as -2.54%. The value for `CC(C)[C@H](NC(=O)OCc1ccccc1)C(=O)OCC(=O)NCCc1ccccc1` was -37%; that for `CCCC(=O)Nc1nc2ccc(OCC)cc2s1` was 2.2%; that for `O=C(CN1C(=O)NC2(CCCCCC2)C1=O)N1CCN(S(=O)(=O)c2ccc(Cl)cc2)CC1` was -23.9%.

`O=C(Nc1ccccc1N1CCCC1)C1=COCCO1`: the “hERG current change (%, negative = inhibition) at 10uM” value is listed as -8.32%.

With `CC(C)C(=O)Nc1ccc(NC(=O)c2ccc(COc3ccccc3)cc2)cc1`, the “hERG current change (%, negative = inhibition) at 10uM” value came out at 16.3%. As for `COc1ccc(-n2cnnc2SCC(=O)Nc2cc(S(=O)(=O)N3CCCCC3)ccc2C)cc1`, the “hERG current change (%, negative = inhibition) at 10uM” value was -84%. The value for `COc1ccc(-c2nn(C)c(=O)c3ccccc23)cc1CNC(=O)NC1CCCCC1` was -26.5%; that for `COc1ccc(-c2csc(Nc3ncccc3C)n2)cc1OC` was -3.62%; that for `CCOc1cc(S(=O)(=O)NCc2ccc3c(c2)OCO3)c(C)cc1C` was -8.62%. The value for `CCCCC(=O)NC(Nc1cc(C)ccn1)(C(=O)OCC)C(F)(F)F` (centres unmarked) was 2.5%; that for `C/C(=N\NC(=O)CCCCCNC(=O)c1ccccc1)c1ccccc1O` was -5.61%; that for `COc1ccc(-c2ccc(OC)c([C@H]3[C@H]4C=CC[C@@H](C)[C@@H]4C(=O)N3Cc3ccccc3)c2)cc1C` was 11.8%.

As to `COc1ccccc1N1CCN(S(=O)(=O)c2ccc(NC(C)=O)cc2)CC1`, the “hERG current change (%, negative = inhibition) at 10uM” value is listed as -22.7%. The value for `CC(=O)Nc1ccc(S(=O)(=O)N(C)c2ccc(O)cc2)cc1` was 2.53%.

With `CC(=O)c1ccccc1OCCCCN1CCCCC1.O=C(O)C(=O)O`, the “hERG current change (%, negative = inhibition) at 10uM” value was -59.5%. For `CCCCN1CC(=O)N2[C@H]3c4cc(Br)ccc4OC[C@@H]3[C@H](C(=O)OCC)[C@]2(C)C1=O`, the “hERG current change (%, negative = inhibition) at 10uM” value is recorded as -21.9%. As to `COc1cc(-c2nnc(NC(=O)c3ccco3)o2)cc(OC)c1OC`, the “hERG current change (%, negative = inhibition) at 10uM” value was -2.51%. In the case of `CCOC(=O)c1c(C)oc2ccc(OC(=O)N3CCOCC3)cc12` it was -16.1%; in that of `CCOc1ccc(N(C(=O)CNC(=O)c2cccs2)C(C(=O)NCC2CCCO2)c2ccc(OC)c(OC)c2)cc1` (centres unmarked), -5.73%. The value for `CC1CN(C(=O)COC(=O)c2ccc(Cl)nc2)CC(C)O1` (centres unmarked) was 6.41%; that for `CCCCc1ccc(NC(=S)NCc2ccccc2OC)cc1` was 7.58%; that for `CCOC(=O)C1CCN(C(=O)c2c(-c3c(F)cccc3Cl)noc2C)CC1` was -6.78%. In the case of `COc1cc(S(=O)(=O)NCC2OCCc3ccccc32)ccc1-n1cnnn1` (centres unmarked) it was -17.2%; in that of `CCOCc1nnc(NC(C)=O)s1`, 8.81%; in that of `Cc1nc(C(=O)NC2CCCCC2)sc1C1(C)CC(c2cccc([N+](=O)[O-])c2)=NO1` (centres unmarked), 4.11%. `CCNC(=O)CC(=O)Nc1ccccc1C(=O)O`: the “hERG current change (%, negative = inhibition) at 10uM” value stood at 7.78%.

Regarding `CCc1nnc2cccc(Cl)n12`, the “hERG current change (%, negative = inhibition) at 10uM” value was 25.9%. In the case of `Cc1ccc(CSCCNC(=O)c2ccc(Cl)c(S(=O)(=O)N3CCOCC3)c2)cc1` it was -40.5%; in that of `COc1ccc(C(=O)COC(=O)/C=C/c2ccccc2)c(OC)c1`, 13.7%; in that of `Cc1ccc(S(=O)(=O)CCC(=O)NCCN2C(=O)S/C(=C\c3ccccc3)C2=O)cc1`, 5.86%. Take `COC(=O)c1ccccc1C(=O)c1cccc2ccccc12`: the “hERG current change (%, negative = inhibition) at 10uM” value stood at 10.8%. In the case of `COc1cc(Cl)c(C)cc1NC(=O)c1ccccc1NC(=O)CN1CCOCC1` it was -58.7%; in that of `Cc1cc2n(n1)C(c1ccc(N(C)C)cc1)Nc1ccccc1-2` (centres unmarked), -12.1%; in that of `COc1cccc(C(=O)Nc2ccc(NC(=O)C(C)(C)C)cn2)c1`, 0.381%.

As to `Nc1ccc(S(=O)(=O)NCc2ccccn2)cc1`, the “hERG current change (%, negative = inhibition) at 10uM” value was -1.59%. In the case of `CCOc1ccc(C(C)NC(=O)CCC(=O)O)cc1` (centres unmarked) it was -2.57%; in that of `CC(=O)Nc1ccc(NC2=C/C(=N/S(=O)(=O)c3cccs3)c3ccccc3C2=O)cc1`, 31.2%; in that of `Cc1ccc(C(=O)NCCCNC(=O)Cc2ccccc2)cn1`, 19.6%.

Regarding `CC(=O)c1cc(NC(=O)c2cccc(C(F)(F)F)c2)c(=O)oc1C`, the “hERG current change (%, negative = inhibition) at 10uM” value was 1.42%. The value for `N#CC(C#N)=Cc1ccc(OCC(=O)N2CCOCC2)cc1` was -5.53%; that for `CC1(C)C=C(c2ccc(O)cc2)CC(C)(C)N1` was -4.44%. In the case of `O=C(O)c1ccc(Cn2cc(Cl)cn2)cc1` it was 18.7%. The value for `COc1cc(C2C(Oc3ccccc3C)C(=O)N2Cc2ccc(F)cc2)cc(OC)c1OC` (centres unmarked) was -5.54%; that for `CC(=O)NCCOc1cccc2cccnc12` was 18.7%; that for `Cc1nnc(SCC(=O)c2ccc([N+](=O)[O-])cc2)s1` was -27.4%. On to `CN(C)c1ccc(C(=O)N/N=C/C23CC[C@@H](O)CC2(O)CC[C@@H]2[C@@H]3CCC3(C)C(C4=CC(=O)OC4)CCC23O)cc1` (some centres unmarked), for which the “hERG current change (%, negative = inhibition) at 10uM” value is 5.94%.

For `O=C(COC(=O)c1cc(-c2cccc(Br)c2)nc2ccccc12)NCC1CCCO1` (centres unmarked), the “hERG current change (%, negative = inhibition) at 10uM” value was 8.76%. As for `CNCCOc1ccccc1OC(C)C.O=C(O)C(=O)O`, the “hERG current change (%, negative = inhibition) at 10uM” value turned out to be 14%.

As for `COc1ccc(C(CC(=O)N2CCN(C)CC2)NC(=O)C(F)(F)F)cc1` (centres unmarked), the “hERG current change (%, negative = inhibition) at 10uM” value worked out at 5.21%.
